# PMC4336329 (PLoS ONE, 2015)
# The whole screen tested about 310,000 compounds, of which about 2,200 (0.71%) showed an effect of 50% or more. Effects have a minus sign here. This is one part of the list.
# Molecular target: human ether-à-go-go-related gene (hERG) potassium channel (human, UniProt Q12809)
# Assay: primary screen, population patch clamp on CHO cells stably expressing hERG
# Sequence of human ether-à-go-go-related gene (hERG) potassium channel (Q12809 whole entry, looked up): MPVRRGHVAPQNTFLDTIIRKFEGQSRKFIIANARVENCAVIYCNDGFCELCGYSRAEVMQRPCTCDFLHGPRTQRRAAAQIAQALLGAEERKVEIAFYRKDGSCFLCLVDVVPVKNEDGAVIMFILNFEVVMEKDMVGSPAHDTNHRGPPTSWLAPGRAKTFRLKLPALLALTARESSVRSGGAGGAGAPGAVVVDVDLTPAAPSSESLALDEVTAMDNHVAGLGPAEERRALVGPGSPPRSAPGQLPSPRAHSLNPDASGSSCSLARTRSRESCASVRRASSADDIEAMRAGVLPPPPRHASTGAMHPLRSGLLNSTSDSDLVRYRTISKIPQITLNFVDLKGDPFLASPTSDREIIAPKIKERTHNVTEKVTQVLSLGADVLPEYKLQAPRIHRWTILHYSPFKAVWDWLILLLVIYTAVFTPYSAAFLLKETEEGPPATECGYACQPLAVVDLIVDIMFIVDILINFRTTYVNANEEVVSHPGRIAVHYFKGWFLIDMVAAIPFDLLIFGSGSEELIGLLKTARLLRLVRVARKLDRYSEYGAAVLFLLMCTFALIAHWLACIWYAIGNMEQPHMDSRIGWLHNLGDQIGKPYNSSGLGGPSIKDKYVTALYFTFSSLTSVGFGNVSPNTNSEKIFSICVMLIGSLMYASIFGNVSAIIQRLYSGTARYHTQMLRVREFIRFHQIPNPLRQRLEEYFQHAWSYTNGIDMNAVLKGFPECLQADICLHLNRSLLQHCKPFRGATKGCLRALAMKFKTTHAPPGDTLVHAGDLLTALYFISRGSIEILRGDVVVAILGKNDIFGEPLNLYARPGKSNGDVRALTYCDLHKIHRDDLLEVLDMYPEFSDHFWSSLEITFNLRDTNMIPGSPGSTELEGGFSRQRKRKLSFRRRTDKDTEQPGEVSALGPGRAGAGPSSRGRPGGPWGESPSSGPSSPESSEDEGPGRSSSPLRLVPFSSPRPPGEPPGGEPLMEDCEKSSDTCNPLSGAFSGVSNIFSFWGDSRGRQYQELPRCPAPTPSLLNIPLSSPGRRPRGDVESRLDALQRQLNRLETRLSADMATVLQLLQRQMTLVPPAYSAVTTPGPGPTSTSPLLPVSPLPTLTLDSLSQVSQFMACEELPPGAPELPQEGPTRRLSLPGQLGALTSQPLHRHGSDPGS
row,Compound,"hERG current change (%, negative = inhibition) at 1uM [%]"
1,COCCNc1nc(Cl)c(C#N)s1,12.9
2,CCOC(=O)c1c(NC(=S)Nc2ccccc2)sc2c1CCN(CCc1ccccc1)C2,2.54
3,O=C(Nc1ccc(S(=O)(=O)N2CCCC2)cc1)C1CC(=O)N(CCc2ccc(F)cc2)C1 (centres unmarked),2.13
4,CCOc1cccc(-c2c(C(=O)N/N=C/c3sccc3C)nnn2-c2nonc2N)c1,8.98
5,CCCOc1ccc(-c2c(=O)n(OCc3ccc([N+](=O)[O-])cc3)c3ccccc3[n+]2[O-])cc1,3.08
6,Cc1cccc(C(=O)NNC(=O)c2ccc(F)cc2)c1,12
7,CC1CCCCN1c1ncnc(N)c1[N+](=O)[O-] (centres unmarked),7.54
8,CCOC(=O)N1CCC(n2c(=S)[nH]c3ccccc3c2=O)CC1,5.07
9,CCn1c(CCC(=O)Nc2nc3c(s2)CCCC3)nc2cc(S(=O)(=O)N(C)C)ccc21,2.22
10,COc1ccc(S(=O)(=O)Nc2ccc(Cl)cn2)cc1,0.261
11,CCCNc1ccc(S(=O)(=O)N(CC)CC)cn1,8.83
12,CCN(c1ccc(C(O)(C(=O)OC)C(F)(F)F)cc1)S(=O)(=O)c1ccccc1 (centres unmarked),7.08
13,O=C1CC(SCCc2nc3ccccc3[nH]2)C(=O)N1c1ccc(F)c(Cl)c1 (centres unmarked),-4.92
14,CCOC(=O)c1cnc(SCC(C)C)nc1N,-2.08
15,COc1ccc(Cl)cc1C(=O)NCc1cn(C)nc1C,15.6
16,CCCn1c(CNC(=O)c2cccs2)nc2ccccc21,1.95
17,CC(C)c1ccc(NC(=O)[C@@H]2CCC(=O)N2C2OC(=O)c3ccccc32)cc1 (some centres unmarked),5.85
18,Br.O=C(Nc1ccc(F)cc1)C1=CC(=O)N2CCN=C2S1,13.7
19,CCOC(=O)c1ccccc1NC(=O)CN(c1ccccc1OCC)S(C)(=O)=O,-0.936
20,CCOC(=O)N1CCN(C(=O)c2nn(-c3cc(OC)cc(OC)c3)c(=O)c3ccccc23)CC1,14.6
21,O=C1C2(c3ccccc3)CN(CCO)CC1(c1ccccc1)CN(CCO)C2,6.6
22,CC(=O)c1ccc(N2CCN(C(=O)Cn3c(=S)[nH]c4ncccc4c3=O)CC2)cc1,12
23,Cc1cccc(C)c1NC(=O)c1cccc(C(=O)Nc2c(C)cccc2C)n1,8.97

row,Compound,"hERG current change (%, negative = inhibition) at 1uM [%]"
1,COc1ccc(-c2nnc(NC(=O)CS(=O)(=O)c3ccc(F)cc3)o2)cc1,4.66
2,O=C1CCCc2c1cc(C(=O)NCc1ccco1)c(=O)n2-c1ccccc1,3.55
3,CC(C)C(C(=O)Nc1ccc2c(c1)OCCO2)N1C(=O)c2ccccc2C1=O (centres unmarked),10.1
4,Cc1c(N2C(=O)CS/C2=N\N=C\c2ccccc2O)c(=O)n(-c2ccccc2)n1C,1.29
5,CCOC(=O)NC(=O)CSc1ccccn1,12.4
6,COCc1nnc(NC(=O)c2sc3ccccc3c2Cl)s1,2.19
7,COc1ccc(OCC(=O)Nc2c(C)ccc3nsnc23)cc1,2.93
8,O=C(Cn1cc(C(F)(F)F)ccc1=O)NCCc1ccc(Cl)cc1Cl,2.22
9,Cc1cc(NC(=O)c2ccc(Cl)cc2)n(-c2ccccc2)n1,13.6
10,O=C(O)c1cccc(-n2c(/C=C/c3ccccc3)nc3ccccc3c2=O)c1,5.76
11,COc1cc(OC)cc(-c2oc3cccnc3c2C#CCCO)c1,9.75
12,O=S(=O)(O)c1cccc(N=Nc2c(O)ccc3ccccc23)c1,10
13,COc1ccc(S(=O)(=O)Nc2cc3c4c(c2)C(C)C(=O)N4CCC3)cc1OC (centres unmarked),8.91
14,COc1ccc(NC(=O)CSc2nnc3n2CCCCC3)cc1,13.5
15,Oc1ccccc1C=NCCCCCCN=Cc1ccccc1O,12.3
16,Cc1cc(/C=C2/C(=O)NN(c3ccccc3)C2=O)c(C)n1-c1ccc(O)cc1,19.6
17,CCCCNC(=O)C1CC(=O)N(C2CCCCC2)C1 (centres unmarked),4.45
18,COc1ccccc1-c1cc(-c2ccc(O)cc2)nc(N)c1C#N,13.4
19,O=c1cc(C(O)C[N+](=O)[O-])occ1OCc1ccccc1 (centres unmarked),2.6
20,CCN(Cc1cn2cccnc2n1)C1CCCCC1,4.26
21,Cn1c(CCCOc2ccc(Cl)cc2Cl)n[nH]c1=S,15.7
22,Cc1ccc(-n2c(N)c(-c3nc4ccccc4n3C)sc2=S)cc1,6.94
23,COc1ccc(CNC(=O)OCc2nccnc2C(=O)Nc2ccc(Br)cn2)cc1,-0.281

row,Compound,"hERG current change (%, negative = inhibition) at 1uM [%]"
1,O=C(Nc1ccnn1C1CCN(Cc2ccccc2OC(F)F)CC1)c1cccnc1,2.05
2,Cc1nn(C(=O)c2cc([N+](=O)[O-])ccc2Cl)c(C)c1Br,14.5
3,CC(C)CCNC(=O)C1C2C=CC3(CN(Cc4ccccc4Cl)C(=O)C13)O2 (centres unmarked),8.09
4,Cc1ccc(NCc2n[nH]c(=S)n2-c2cccc(Cl)c2)cc1,14.4
5,CN1C2C=C3C(C#N)=C(N)C(C#N)(C#N)[C@@H](c4cccc(F)c4)[C@@H]3C1CC2 (some centres unmarked),15.1
6,COc1ccccc1N1CCN(CCN(C(=O)C2CCCCC2)c2ccccn2)CC1.O=C(O)/C=C\C(=O)O,4.2
7,Cc1ccnc(NC(=O)c2ccc([N+](=O)[O-])o2)c1,13.4
8,COc1ccc(O)c(/C=N/NC(=O)c2ccc(CSc3nc(C)cc(C)n3)cc2)c1,14.4
9,O=C(OCC(=O)N(Cc1ccccc1)Cc1ccccc1)c1ccccc1NCCO,0.0935
10,CCOc1cc2c(cc1OCC)-n1cccc1C(c1ccc(C(C)C)cc1)NC2.Cl (centres unmarked),18.6
11,COc1ccnc(NCc2cccnc2)c1C#N,12.3
12,CN1C(=O)C(CC(=O)Nc2ccccc2F)N(NC(=O)c2ccc(Br)cc2)C1=S (centres unmarked),12.4
13,CCCCn1c(N)c(Sc2ccc(C)cc2)c(=O)[nH]c1=O,8.7
14,CCOc1ccc(N2CC(C(=O)Nc3ccc(N4CCOCC4)cc3)CC2=O)cc1 (centres unmarked),10.3
15,CC(C)(C)c1ccc(-c2nc(O)c(CC(=O)O)s2)cc1,7.54
16,CC(C)COc1ccc(/C=C2/Sc3ccccc3C2=O)cc1,18.3
17,CCN(CC)C(=O)c1cc2c(=O)c3cc(Cl)ccc3oc2nc1C,-15
18,Cc1ccc(C(=O)NNC(=O)OC(C)(C)C)c(Cl)c1,1.71
19,COc1ccc(/C=N/NC(=O)c2ccccc2OC)cc1COc1ccc(C)cc1,14.5
20,CC(C)Cc1ccc([C@H](C)C(=O)O)cc1,8.42
21,Cc1cccc(N/C=C/C(=O)c2cccs2)c1C,14.2
22,CCN(CC)c1ccc(/C=N/NC(=O)c2ccc3nc[nH]c3c2)cc1,6.09
23,COc1ccc(N2CCN(CC(=O)Nc3ccccc3SC)CC2)cc1,8.12

row,Compound,"hERG current change (%, negative = inhibition) at 1uM [%]"
1,COc1ccc(CNC(=O)CCn2ccc3cc(S(=O)(=O)N4CCCC4)ccc32)cc1,9.44
2,N#C/C(=N\Nc1ccccc1)C(=N)N1CCCCC1,-0.163
3,CCC(=O)c1ccc(OCC(=O)N2CCN(c3ncccn3)CC2)cc1,7.61
4,CC(=O)N(c1ccccc1C)S(=O)(=O)c1ccc(Cl)cc1,10
5,COc1cccc(N(CC(=O)NCC2CCCO2)C(=O)CNS(=O)(=O)c2ccccc2)c1 (centres unmarked),17.7
6,O=C(NC1CCCCC1)C(c1ccc(O)cc1)N(CC1CCCO1)C(=O)C1COc2ccccc2O1 (centres unmarked),7.86
7,Cc1ccc(C2(C(F)(F)F)NC(=O)N3N=C4CCCCCN4C3=C2C#N)cc1 (centres unmarked),1.63
8,C/C=C(/C)C(=O)O[C@@H]1c2c(ccc3ccc(=O)oc23)OC(C)(C)[C@@H]1OC(=O)/C(C)=C\C,9.46
9,COc1cc(O)cc(O)c1C(=O)/C=C/c1ccccc1,12.6
10,Cc1ccc(S(=O)(=O)N2CCSC2=Nc2ccccc2)cc1,10.9
11,CCCOc1cccc(C(=O)Nc2cccnc2)c1,-4.26
12,CCCC(=O)N1CCN(C2=NS(=O)(=O)c3ccccc32)CC1,6.51
13,Cc1ccccc1C(=O)c1cccn1CC(=O)NC1CCCC(C)C1C (centres unmarked),6.18
14,O=C(NCCc1ccccn1)C(F)(F)C(F)(F)C(F)(F)C(F)(F)C(F)(F)C(F)F,-2.94
15,COc1ccc(C(=O)/C(=C/O)N=Nc2ccc(F)cc2)cc1,5.01
16,Cc1cccc(CCNC(=O)CN(C)S(=O)(=O)c2ccc3c(c2)c(=O)n(C)c(=O)n3C)c1,4.52
17,CCN(CC)C(=O)CSc1nnc(COc2ccccc2)n1N,1.64
18,Cc1c(N(C)C(=O)c2ccccc2F)c(=O)n(-c2ccccc2)n1C,14.3
19,Cc1nc2c(cc1N)nc(C)n2Cc1ccccc1,11.8
20,O=C(NCCCc1ccccc1)c1ccc(CS(=O)Cc2ccc(Cl)cc2)o1 (centres unmarked),-40.9
